Reference: PMC4336329 (PLoS ONE, 2015)
Hit rate of the full screen: of about 310,000 compounds, about 14,000 (4.5%) showed an effect of 50% or more. The effect is printed as a negative number. This is one part of the list.

Each molecule was assayed against human ether-à-go-go-related gene (hERG) potassium channel (human, UniProt Q12809) (assay: primary screen, population patch clamp on CHO cells stably expressing hERG).
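Also: peak tail current of the secondary pulse compared with the same well before compound.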

Chain of human ether-à-go-go-related gene (hERG) potassium channel (Q12809 whole entry, looked up): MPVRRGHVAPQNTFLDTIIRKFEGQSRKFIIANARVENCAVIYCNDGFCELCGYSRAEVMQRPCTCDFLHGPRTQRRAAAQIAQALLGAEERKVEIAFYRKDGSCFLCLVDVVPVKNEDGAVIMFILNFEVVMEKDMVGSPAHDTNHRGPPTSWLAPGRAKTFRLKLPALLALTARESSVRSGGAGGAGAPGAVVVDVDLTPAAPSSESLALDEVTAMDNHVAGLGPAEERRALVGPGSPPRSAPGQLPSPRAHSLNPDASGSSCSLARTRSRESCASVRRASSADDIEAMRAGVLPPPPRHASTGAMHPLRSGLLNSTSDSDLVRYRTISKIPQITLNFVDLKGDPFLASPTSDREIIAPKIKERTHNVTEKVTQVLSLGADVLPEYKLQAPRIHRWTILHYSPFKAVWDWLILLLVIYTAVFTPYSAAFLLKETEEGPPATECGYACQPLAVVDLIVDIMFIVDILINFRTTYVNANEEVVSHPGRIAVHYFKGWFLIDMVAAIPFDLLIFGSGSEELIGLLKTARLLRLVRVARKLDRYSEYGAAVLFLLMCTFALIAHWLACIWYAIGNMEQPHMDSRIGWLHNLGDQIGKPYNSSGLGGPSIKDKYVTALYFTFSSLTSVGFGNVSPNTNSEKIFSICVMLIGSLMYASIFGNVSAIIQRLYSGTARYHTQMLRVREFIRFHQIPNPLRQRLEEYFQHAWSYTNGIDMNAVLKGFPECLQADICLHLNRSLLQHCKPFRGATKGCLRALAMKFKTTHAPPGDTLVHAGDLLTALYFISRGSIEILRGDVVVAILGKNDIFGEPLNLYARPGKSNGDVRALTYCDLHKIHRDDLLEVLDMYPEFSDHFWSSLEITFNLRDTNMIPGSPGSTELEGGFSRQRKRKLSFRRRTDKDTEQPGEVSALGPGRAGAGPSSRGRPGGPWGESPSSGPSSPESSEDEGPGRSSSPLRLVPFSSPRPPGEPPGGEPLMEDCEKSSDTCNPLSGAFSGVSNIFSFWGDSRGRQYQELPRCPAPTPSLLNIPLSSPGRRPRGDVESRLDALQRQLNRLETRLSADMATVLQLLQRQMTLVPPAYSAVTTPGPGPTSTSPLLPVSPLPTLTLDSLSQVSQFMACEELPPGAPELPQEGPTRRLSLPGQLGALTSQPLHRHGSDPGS

| SMILES | hERG current change (%, negative = inhibition) at 10uM |
| --- | --- |
| CCCNC(=O)CN1C(=O)NC(CCc2ccccc2)C1=O (centres unmarked) | 22.1% |
| Cc1c(CCO)c(=O)[nH]n1S(=O)(=O)c1ccc(Cl)cc1Cl | 1.33% |
| COC(=O)CN(c1nc(C)c(Br)c(OC)n1)S(=O)(=O)c1ccccc1 | 7.97% |
| N#CC1=C(c2ccc(-c3ccccc3)cc2)COC1=O | -15.1% |
| CCN(CC)S(=O)(=O)c1cc(C(=O)OCC(=O)NC2CCCc3ccccc32)ccc1C (centres unmarked) | -27.5% |
| COCCCNc1nc2ccccc2nc1NS(=O)(=O)c1cc(Cl)ccc1Cl | 10.6% |
| Cc1ccc(S(=O)(=O)Cc2ccc(C(=O)NCc3cccs3)o2)cc1 | -7.53% |
| Cc1ccc(-n2c(C)cc(/C=C3\C(=O)NC(=O)N(C)C3=O)c2C)cc1C | 4% |
| O=C(COC(=O)c1ccc(S(=O)(=O)N2CCCC2)cc1)NCc1cccs1 | -1.99% |
| Cc1cccc(OCCCC(=O)Nc2ccc(S(N)(=O)=O)cc2)c1C | 10.8% |
| Cn1sc(NC(=O)c2ccccc2)nc1=O | -16.4% |
| CCn1c(C(C)NC(=O)c2cccc(C)c2)n[nH]c1=S (centres unmarked) | -28% |
| O=C(NCCc1c[nH]c2ccccc12)C(=O)NCC1OCCN1S(=O)(=O)c1ccccc1 (centres unmarked) | -8.58% |
| CC1CCC(NS(=O)(=O)c2ccc3c(c2)n(C)c(=O)c(=O)n3C)CC1 (centres unmarked) | -34.6% |
| O=C(O)CSc1ncccn1 | 2.16% |
| O=C(NCc1ccncc1)C(=O)Nc1ccc2c(c1)OCO2 | 12.8% |
| CCOC(=O)n1c(=O)n(Cc2ccccc2)c2ccccc21 | -9.45% |
| COc1ccccc1NC(=O)/C(C#N)=C/c1c(C)nn(-c2ccc(F)cc2)c1Cl | -7.24% |
| O=C(c1cc(-c2ccccc2)on1)N1CCN(C(=O)c2ccco2)CC1 | -40.9% |
| COc1ccc(C)cc1Nc1nc(-c2ccccc2O)nc2ccccc12 | 18.1% |
| CC1=C(C(N)=O)C(c2ccccn2)n2nc(SCc3ccccc3Cl)nc2N1 (centres unmarked) | -0.969% |
| CN(C)c1nc(Oc2ccc(C(=O)OCC(=O)Nc3ccccc3)cc2)nc(N(C)C)n1 | -2.65% |

| SMILES | hERG current change (%, negative = inhibition) at 10uM |
| --- | --- |
| COc1ccc(CCNC(=O)CSc2nnc(CNC(=O)c3cc(OC)c(OC)c(OC)c3)o2)cc1OC | 11.7% |
| N#CC1=C(N2CCCCC2)c2cc3c(n2C1=O)CCCC3 | -2.08% |
| Cc1ccc(NC(=O)C2CCCN(S(=O)(=O)c3ccc4[nH]c(=O)ccc4c3)C2)cc1C (centres unmarked) | -12.2% |
| O=CN1CCN(C(=O)COc2ccc(Cl)cc2Br)CC1 | -20.3% |
| COc1cccc(Nc2cc(C)nc3ccccc23)c1 | -73.1% |
| O=C(Nc1ccccc1)C1=C[C@H](c2ccccc2)C[C@H](OCCCCO)O1 | -17.4% |
| NC(=S)NNC(=O)c1cc(C(F)(F)F)cc(C(F)(F)F)c1 | 15.7% |
| COc1ccc(CCNC(=O)CSc2nc(-c3ccc(OC)c(OC)c3)ccc2C#N)cc1 | -20.5% |
| COc1ccc(C(=O)Nc2cc(C(=O)NCCc3ccccc3)ccc2Cl)cc1 | -5.52% |
| CSc1nsc(SCC(=O)Nc2nc3ccc(C)cc3s2)n1 | 25.8% |
| C=C(C(=O)O)C(CCCCCC)C(=O)O (centres unmarked) | 2.31% |
| C/C(=N\NC(=O)c1cccc(C)c1)c1ccc(N2CCOCC2)cc1 | -4.66% |
| Cc1ccc(S(=O)(=O)Nc2ccc3cn[nH]c3c2)c(C)c1 | -18.1% |
| CCN(CC)CCN(C(=O)CCS(=O)(=O)c1ccccc1)c1nc2cc(C)cc(C)c2s1.Cl | 9.19% |
| O=C(CCN1CCCCC1)N/N=C/c1ccc(Br)cc1 | -77.8% |
| O=C(Nc1ccccc1N1CCN(c2ccc(F)cc2)CC1)c1ccccc1 | -17.8% |
| O=C(COC(=O)CCc1nc2ccccc2c(=O)[nH]1)NCc1ccc(F)cc1 | 11.6% |
| Cn1c(SCC(=O)NCCN2C(=O)CSC2=O)nc2ccccc2c1=O | -2.05% |
| O=C(NN=C1CCCCCC1)c1ccc(Br)o1 | 5.46% |
| COc1ccc(C2C(C(=O)OC3CCCCC3)=C(C)Nc3nnnn32)c(OC)c1OC (centres unmarked) | -8.23% |
| CCn1c(CSc2nc3ccccc3s2)nnc1SCC(=O)c1ccc(O)c(O)c1 | 17.8% |
| COc1cccc(C(=O)NC2CCN(CC(=O)Nc3ccccc3Cl)CC2)c1 | -55.4% |
